Measurements: the supplement of paper PMC8948288
The sequences are guide strands of siRNAs; only the seed at positions 2 to 7 varies.

Key:
[1] = tested on: GL261; assay: cell viability relative to siNT1 (ATP content); H4 human neuroglioma and GL261 mouse glioma; higher = less toxic; conditions: siRNA concentration 25 nM; 96 h; mouse
[2] = tested on: H4; assay: as above; conditions: siRNA concentration 10 nM; 96 h; human
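Further: cells reverse transfected with siRNA duplexes via lipid reagent, ATP read by luminescence, triplicate wells, values scaled to mean viability with non-targeting control siNT1.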

UGUAGAUACAUGUAAACCA
cell viability [1]: 38.1% | cell viability [2]: 70.6%

UGUAGCAACAUGUAAACCA
cell viability [1]: 48.7% | cell viability [2]: 92.5%

UGUAGCCACAUGUAAACCA
cell viability [1]: 9.03% | cell viability [2]: 13.7%

UGUAGCGACAUGUAAACCA
cell viability [1]: 49.5% | cell viability [2]: 77.1%

UGUAGCUACAUGUAAACCA
cell viability [1]: 24.5% | cell viability [2]: 38.9%

UGUAGGAACAUGUAAACCA
cell viability [1]: 39.9% | cell viability [2]: 83.7%

UGUAGGCACAUGUAAACCA
cell viability [1]: 9.17% | cell viability [2]: 17.7%

UGUAGGGACAUGUAAACCA
cell viability [1]: 19.4% | cell viability [2]: 51.2%

UGUAGGUACAUGUAAACCA
cell viability [1]: 15.2% | cell viability [2]: 32.6%

UGUAGUAACAUGUAAACCA
cell viability [1]: 52% | cell viability [2]: 71.9%

UGUAGUCACAUGUAAACCA
cell viability [1]: 18.9% | cell viability [2]: 23.7%

UGUAGUGACAUGUAAACCA
cell viability [1]: 42.2% | cell viability [2]: 93.2%

UGUAGUUACAUGUAAACCA
cell viability [1]: 22.8% | cell viability [2]: 28.4%

UGUAUAAACAUGUAAACCA
cell viability [1]: 74.2% | cell viability [2]: 79.9%

UGUAUACACAUGUAAACCA
cell viability [1]: 68.9% | cell viability [2]: 92.7%

UGUAUAGACAUGUAAACCA
cell viability [1]: 59.9% | cell viability [2]: 106%

UGUAUAUACAUGUAAACCA
cell viability [1]: 65.8% | cell viability [2]: 66%

UGUAUCAACAUGUAAACCA
cell viability [1]: 58.6% | cell viability [2]: 104%

UGUAUCCACAUGUAAACCA
cell viability [1]: 21.5% | cell viability [2]: 30.9%

UGUAUCGACAUGUAAACCA
cell viability [1]: 64% | cell viability [2]: 81.3%

UGUAUCUACAUGUAAACCA
cell viability [1]: 41.4% | cell viability [2]: 44.9%

UGUAUGAACAUGUAAACCA
cell viability [1]: 61.2% | cell viability [2]: 85.6%

UGUAUGCACAUGUAAACCA
cell viability [1]: 46.8% | cell viability [2]: 32.6%

UGUAUGGACAUGUAAACCA
cell viability [1]: 54.9% | cell viability [2]: 39%

UGUAUGUACAUGUAAACCA
cell viability [1]: 25.1% | cell viability [2]: 44.2%

UGUAUUAACAUGUAAACCA
cell viability [1]: 70.9% | cell viability [2]: 89.3%

UGUAUUCACAUGUAAACCA
cell viability [1]: 35.1% | cell viability [2]: 38.9%

UGUAUUGACAUGUAAACCA
cell viability [1]: 66.4% | cell viability [2]: 79.2%

UGUAUUUACAUGUAAACCA
cell viability [1]: 61.9% | cell viability [2]: 50.6%

UGUCAAAACAUGUAAACCA
cell viability [1]: 46% | cell viability [2]: 81.1%

UGUCAACACAUGUAAACCA
cell viability [1]: 11% | cell viability [2]: 72.6%

UGUCAAGACAUGUAAACCA
cell viability [1]: 55.8% | cell viability [2]: 95%

UGUCAAUACAUGUAAACCA
cell viability [1]: 40.8% | cell viability [2]: 104%

UGUCACAACAUGUAAACCA
cell viability [1]: 15.7% | cell viability [2]: 50.9%

UGUCACCACAUGUAAACCA
cell viability [1]: 3.74% | cell viability [2]: 42.4%

UGUCACGACAUGUAAACCA
cell viability [1]: 18.6% | cell viability [2]: 58.5%

UGUCACUACAUGUAAACCA
cell viability [1]: 16.5% | cell viability [2]: 55%

UGUCAGAACAUGUAAACCA
cell viability [1]: 28.6% | cell viability [2]: 115%

UGUCAGCACAUGUAAACCA
cell viability [1]: 10.2% | cell viability [2]: 44.1%

UGUCAGGACAUGUAAACCA
cell viability [1]: 18.4% | cell viability [2]: 82.5%

UGUCAGUACAUGUAAACCA
cell viability [1]: 6.85% | cell viability [2]: 72.9%

UGUCAUAACAUGUAAACCA
cell viability [1]: 26.2% | cell viability [2]: 103%

UGUCAUCACAUGUAAACCA
cell viability [1]: 9.91% | cell viability [2]: 32.1%

UGUCAUGACAUGUAAACCA
cell viability [1]: 13.2% | cell viability [2]: 101%

UGUCAUUACAUGUAAACCA
cell viability [1]: 20.1% | cell viability [2]: 74.9%

UGUCCAAACAUGUAAACCA
cell viability [1]: 30.3% | cell viability [2]: 69.9%

UGUCCACACAUGUAAACCA
cell viability [1]: 21.3% | cell viability [2]: 52.4%

UGUCCAGACAUGUAAACCA
cell viability [1]: 16.2% | cell viability [2]: 56%

UGUCCAUACAUGUAAACCA
cell viability [1]: 11.5% | cell viability [2]: 76.4%

UGUCCCAACAUGUAAACCA
cell viability [1]: 10.9% | cell viability [2]: 54.9%

UGUCCCCACAUGUAAACCA
cell viability [1]: 26.3% | cell viability [2]: 28.1%

UGUCCCGACAUGUAAACCA
cell viability [1]: 17.6% | cell viability [2]: 54%

UGUCCCUACAUGUAAACCA
cell viability [1]: 6.63% | cell viability [2]: 24.4%

UGUCCGAACAUGUAAACCA
cell viability [1]: 16% | cell viability [2]: 97.6%

UGUCCGCACAUGUAAACCA
cell viability [1]: 4.64% | cell viability [2]: 55.7%

UGUCCGGACAUGUAAACCA
cell viability [1]: 20.1% | cell viability [2]: 36.8%

UGUCCGUACAUGUAAACCA
cell viability [1]: 21.7% | cell viability [2]: 60.2%

UGUCCUAACAUGUAAACCA
cell viability [1]: 54% | cell viability [2]: 63.3%

UGUCCUCACAUGUAAACCA
cell viability [1]: 5.32% | cell viability [2]: 11.7%

UGUCCUGACAUGUAAACCA
cell viability [1]: 23% | cell viability [2]: 51.7%

UGUCCUUACAUGUAAACCA
cell viability [1]: 9.3% | cell viability [2]: 37.5%

UGUCGAAACAUGUAAACCA
cell viability [1]: 53.8% | cell viability [2]: 58.7%

UGUCGACACAUGUAAACCA
cell viability [1]: 26% | cell viability [2]: 52.8%

UGUCGAGACAUGUAAACCA
cell viability [1]: 32.6% | cell viability [2]: 93.1%

UGUCGAUACAUGUAAACCA
cell viability [1]: 38.9% | cell viability [2]: 73.6%

UGUCGCAACAUGUAAACCA
cell viability [1]: 22.6% | cell viability [2]: 101%

UGUCGCCACAUGUAAACCA
cell viability [1]: 5.91% | cell viability [2]: 32.7%

UGUCGCGACAUGUAAACCA
cell viability [1]: 31.9% | cell viability [2]: 93.2%

UGUCGCUACAUGUAAACCA
cell viability [1]: 13.1% | cell viability [2]: 23.3%

UGUCGGAACAUGUAAACCA
cell viability [1]: 34.2% | cell viability [2]: 81.4%

UGUCGGCACAUGUAAACCA
cell viability [1]: 20.1% | cell viability [2]: 83.3%

UGUCGGGACAUGUAAACCA
cell viability [1]: 16.8% | cell viability [2]: 53.4%

UGUCGGUACAUGUAAACCA
cell viability [1]: 22% | cell viability [2]: 65.4%

UGUCGUAACAUGUAAACCA
cell viability [1]: 41% | cell viability [2]: 94.7%

UGUCGUCACAUGUAAACCA
cell viability [1]: 16.8% | cell viability [2]: 80.8%

UGUCGUGACAUGUAAACCA
cell viability [1]: 39.3% | cell viability [2]: 105%

UGUCGUUACAUGUAAACCA
cell viability [1]: 17.2% | cell viability [2]: 83.3%

UGUCUAAACAUGUAAACCA
cell viability [1]: 53.3% | cell viability [2]: 92.7%

UGUCUACACAUGUAAACCA
cell viability [1]: 32.5% | cell viability [2]: 60.8%

UGUCUAGACAUGUAAACCA
cell viability [1]: 47.7% | cell viability [2]: 89.6%

UGUCUAUACAUGUAAACCA
cell viability [1]: 30.3% | cell viability [2]: 63.4%

UGUCUCAACAUGUAAACCA
cell viability [1]: 22.5% | cell viability [2]: 63.7%

UGUCUCCACAUGUAAACCA
cell viability [1]: 6.28% | cell viability [2]: 22.9%

UGUCUCGACAUGUAAACCA
cell viability [1]: 10.4% | cell viability [2]: 60.8%

UGUCUCUACAUGUAAACCA
cell viability [1]: 8.43% | cell viability [2]: 37.9%

UGUCUGAACAUGUAAACCA
cell viability [1]: 28.5% | cell viability [2]: 56.7%

UGUCUGCACAUGUAAACCA
cell viability [1]: 7.87% | cell viability [2]: 20.5%

UGUCUGGACAUGUAAACCA
cell viability [1]: 10.1% | cell viability [2]: 15.1%

UGUCUGUACAUGUAAACCA
cell viability [1]: 21.6% | cell viability [2]: 59.9%

UGUCUUAACAUGUAAACCA
cell viability [1]: 38.4% | cell viability [2]: 96.1%

UGUCUUCACAUGUAAACCA
cell viability [1]: 7.83% | cell viability [2]: 34.4%

UGUCUUGACAUGUAAACCA
cell viability [1]: 24.5% | cell viability [2]: 57.1%

UGUCUUUACAUGUAAACCA
cell viability [1]: 37.2% | cell viability [2]: 52.1%

UGUGAAAACAUGUAAACCA
cell viability [1]: 66.3% | cell viability [2]: 82.3%

UGUGAACACAUGUAAACCA
cell viability [1]: 37.1% | cell viability [2]: 63.5%

UGUGAAGACAUGUAAACCA
cell viability [1]: 70.5% | cell viability [2]: 75.1%

UGUGAAUACAUGUAAACCA
cell viability [1]: 41% | cell viability [2]: 67.8%

UGUGACAACAUGUAAACCA
cell viability [1]: 52.4% | cell viability [2]: 62.1%

UGUGACCACAUGUAAACCA
cell viability [1]: 19% | cell viability [2]: 20.6%

UGUGACGACAUGUAAACCA
cell viability [1]: 43.5% | cell viability [2]: 86.1%

UGUGACUACAUGUAAACCA
cell viability [1]: 33.6% | cell viability [2]: 25.1%

UGUGAGAACAUGUAAACCA
cell viability [1]: 43.4% | cell viability [2]: 59.1%

UGUGAGCACAUGUAAACCA
cell viability [1]: 47.9% | cell viability [2]: 38%

UGUGAGGACAUGUAAACCA
cell viability [1]: 29.5% | cell viability [2]: 41.7%

UGUGAGUACAUGUAAACCA
cell viability [1]: 14.2% | cell viability [2]: 20.1%

UGUGAUAACAUGUAAACCA
cell viability [1]: 59% | cell viability [2]: 66.2%

UGUGAUCACAUGUAAACCA
cell viability [1]: 45.9% | cell viability [2]: 70.5%

UGUGAUGACAUGUAAACCA
cell viability [1]: 28.6% | cell viability [2]: 78.6%

UGUGAUUACAUGUAAACCA
cell viability [1]: 61.5% | cell viability [2]: 48.9%

UGUGCAAACAUGUAAACCA
cell viability [1]: 59.8% | cell viability [2]: 77.1%

UGUGCACACAUGUAAACCA
cell viability [1]: 50.7% | cell viability [2]: 49.2%

UGUGCAGACAUGUAAACCA
cell viability [1]: 46.2% | cell viability [2]: 60%

UGUGCAUACAUGUAAACCA
cell viability [1]: 32.6% | cell viability [2]: 71.8%

UGUGCCAACAUGUAAACCA
cell viability [1]: 34.7% | cell viability [2]: 76.9%

UGUGCCCACAUGUAAACCA
cell viability [1]: 33.7% | cell viability [2]: 83.7%

UGUGCCGACAUGUAAACCA
cell viability [1]: 35.4% | cell viability [2]: 59.8%

UGUGCCUACAUGUAAACCA
cell viability [1]: 45.9% | cell viability [2]: 66%

UGUGCGAACAUGUAAACCA
cell viability [1]: 46.5% | cell viability [2]: 92.4%
